Consider one molecule from PMC13086964 (Nature Communications, 2026).

For the assay, the target named is T1, recombinant full length His6-MBP-FAN1-His6 (human, UniProt Q9Y2M0 1-1017).
T1 construct: human FAN1, full length; Tag ends are read from the printed name His6-MBP-FAN1-His6; also called MBP-His-tagged FAN1; recombinant human FAN1; source: E. coli BL21, purified (HisTrap, MBPTrap, desalting); not shown: His6, N-terminal, kept; MBP, N-terminal, kept; His6, C-terminal, kept
T1 sequence (looked up): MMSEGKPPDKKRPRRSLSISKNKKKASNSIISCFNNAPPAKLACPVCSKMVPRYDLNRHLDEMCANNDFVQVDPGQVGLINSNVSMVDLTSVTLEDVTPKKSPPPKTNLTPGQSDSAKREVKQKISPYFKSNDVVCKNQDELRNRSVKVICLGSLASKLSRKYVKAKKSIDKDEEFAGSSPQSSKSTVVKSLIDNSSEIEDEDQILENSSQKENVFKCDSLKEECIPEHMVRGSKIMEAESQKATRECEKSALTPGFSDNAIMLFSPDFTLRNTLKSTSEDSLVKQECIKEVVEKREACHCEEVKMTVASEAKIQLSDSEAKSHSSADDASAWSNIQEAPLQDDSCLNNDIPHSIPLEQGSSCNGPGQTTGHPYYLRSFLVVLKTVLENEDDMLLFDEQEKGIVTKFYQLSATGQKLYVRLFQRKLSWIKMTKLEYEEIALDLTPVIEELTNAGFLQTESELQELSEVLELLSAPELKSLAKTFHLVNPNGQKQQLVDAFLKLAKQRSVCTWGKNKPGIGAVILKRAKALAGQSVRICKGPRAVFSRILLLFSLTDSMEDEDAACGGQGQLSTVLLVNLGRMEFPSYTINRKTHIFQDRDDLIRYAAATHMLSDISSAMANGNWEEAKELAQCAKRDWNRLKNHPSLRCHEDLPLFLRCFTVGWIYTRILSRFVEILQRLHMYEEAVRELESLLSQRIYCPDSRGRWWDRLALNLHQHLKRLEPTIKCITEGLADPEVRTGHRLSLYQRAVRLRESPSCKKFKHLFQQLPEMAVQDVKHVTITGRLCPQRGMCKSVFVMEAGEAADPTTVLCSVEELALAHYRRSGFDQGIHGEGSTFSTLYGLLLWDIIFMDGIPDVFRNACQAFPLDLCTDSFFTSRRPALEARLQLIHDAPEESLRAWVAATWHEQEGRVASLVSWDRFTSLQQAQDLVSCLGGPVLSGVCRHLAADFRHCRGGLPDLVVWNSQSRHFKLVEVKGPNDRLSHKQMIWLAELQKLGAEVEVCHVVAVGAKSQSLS
In words: pull-down; in vitro streptavidin pull-down with recombinant biotin-tagged USP7 TRAF-like or UBL domains and MBP-His-tagged FAN1 (Figure S3A). The settings on record: both partners purified.

B1: USP7 TRAF domain ([…]), biotinylated (domain or fragment)
chain: not shown
modifications: biotin (on the AviTag)
notes: pNICBio2 vector; also called USP7 TRAF-like domain; source: E. coli BL21(DE3)-pBirAcm, purified (TALON, SEC); not shown: AviTag, C-terminal, kept
For the molecule B1, the binding result is on record as “binds”.
